In PubChem BioAssay AID1508623 (National Center for Advancing Translational Sciences (NCATS), 2021):
Hit rate of the full screen: of about 48,000 compounds, about 450 (0.94%) were called active. Inconclusive results, whose numbers are uncertain, are shown with a selection of clear calls. Calls follow the shape of the dose curve; as a rule, active = well fitted inhibition curve with a large enough effect; inconclusive = small, poorly fitted or top-dose-only effect; inactive = no such curve, though single readings can be large or run the other way. Where the call is inconclusive, the potency comes from a doubtful curve fit.

experiment: Primary qHTS for Identification of Small Molecule Inhibitors of Huntingtin Promoter Activity; details: HEK293 HTT promoter firefly luciferase reporter (activity 0% = vehicle and -100% = no light), 24 h; series mostly up to 57.5 µM; also: nearly all actives have a fitted effect of over 50% in size
Summary of the method: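 Quantitative HTS used concentration series of up to 57.5 uM final on HEK293 luciferase reporter cells, 24 h at 37 degrees C. Readout was Dual-Glo firefly luminescence.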
Potency is read from the fitted curve at half-maximal effect; tags tell the direction and shape of the fitted curve.

Potency, active:
Cc1ccc(C)c(N2CCN(C(=O)C3CCN(c4nc(-c5ccc(C(C)C)cc5)no4)CC3)CC2)c1 0.112 µM

Potency, inconclusive:
CCOc1ccc(CNC(=O)C2CCN(c3nnc(-n4cccc4CNc4ccc(C)cc4)s3)CC2)cc1OC 7.94 µM [inhibitor, full curve, poor fit]
Cc1ccc(O)c(C(CC(=O)NCC2(c3ccccc3)CCCC2)c2ccccc2)c1 (configuration not stated) 39.8 µM [inhibitor, single point]
CCCCCCCCCCCCCCCC[N+](C)(C)CCN(Cc1ccc(OC)cc1)c1ncccn1 22.4 µM [inhibitor, partial curve, poor fit]
O=C(CN1C(=O)COc2ccc(S(=O)(=O)N3CCCCCC3)cc21)NCc1ccc(Cl)cc1 39.8 µM [inhibitor, single point]
CCc1c(C)sc2c1CCN(Cc1cccc(F)c1)C2c1ccccc1 (configuration not stated) 35.5 µM [inhibitor, partial curve, poor fit]
Cc1ccc(S(=O)(=O)c2nc(-c3ccccc3F)oc2N2CCCCC2)cc1 39.8 µM [inhibitor, single point]
O=C(NCC(c1cccnc1)N1CCc2ccccc2C1)c1ccc(F)c(F)c1 (configuration not stated) 35.5 µM [inhibitor, single point]
COc1ccc(CCN2C(=O)c3oc4cc(C)cc(C)c4c(=O)c3C2c2ccc(F)cc2)cc1OC (configuration not stated) 3.55 µM [inhibitor, single point]
Cc1ccc(C(=O)N2CCc3cc(CNS(=O)(=O)c4ccc(Cl)s4)ccc32)cc1 20 µM [inhibitor, partial curve, poor fit]
CCc1ccc(-n2c(C)nnc2SCc2nc(-c3ccc(OC)cc3)no2)cc1 25.1 µM [inhibitor, single point]
O=C(Nc1ccc(Cl)cc1Cl)c1cc(S(=O)(=O)N2CCN(c3ccccc3F)CC2)ccc1F 14.1 µM [inhibitor, partial curve]
COc1cccc(-c2nnc3n(Cc4ccc(F)cc4)c(=O)c4ccccc4n23)c1 35.5 µM [inhibitor, partial curve, poor fit]
Cc1ccc(-c2noc(CN(C3CCCCC3)S(=O)(=O)c3ccc(C)cc3)n2)cc1 39.8 µM [inhibitor, single point]
CO[C@H]1C=CC=C(C)C(=O)NC2=CC(=O)C(NCCN(C)C)=C(C[C@@H](C)C[C@H](OC)[C@@H](O)[C@@H](C)C=C(C)[C@@H]1OC(N)=O)C2=O 1.93 µM [inhibitor, full curve]
CCOc1cc(CNc2ccc(O)cc2)cc(Br)c1OCc1ccccc1 39.8 µM [inhibitor, single point]
O=C(Nc1nnc(S(=O)(=O)N2CCCc3ccccc32)s1)c1ccccc1Br 28.2 µM [inhibitor, single point]
Cc1nc2sc(C(=O)NCc3ccc(Cl)cc3)c(NC(=O)c3ccccc3)c2c(C)c1C 0.794 µM [inhibitor, full curve, poor fit]
Cc1ccnc(NC(c2ccccc2F)c2ccc3cccnc3c2O)c1 (configuration not stated) 39.8 µM [inhibitor, partial curve, poor fit]
CCC(C)NS(=O)(=O)c1ccc(N2CCCCS2(=O)=O)cc1 (configuration not stated) 20 µM [inhibitor, partial curve, poor fit]
COc1ccc(C)cc1NC(=O)C1CCCN(S(=O)(=O)c2ccc3c(c2)CCCN3C(C)=O)C1 (configuration not stated) 17.8 µM [inhibitor, partial curve]
NC(=O)C1CCN(c2ncnc3c2cnn3-c2ccccc2)CC1 3.16 µM [inhibitor, full curve, poor fit]
CCC(CC)C(=O)Nc1nnc(SCc2cc(=O)c3ccccc3[nH]2)s1 11.2 µM [inhibitor, partial curve, poor fit]
COc1cccc(NC(=O)Cn2c(=O)n(-c3cccc(OC)c3)c(=O)c3sc4ccccc4c32)c1 25.1 µM [inhibitor, partial curve]
CN(C)S(=O)(=O)N(CC(=O)Nc1ccc(Br)cc1F)c1ccccc1 31.6 µM [inhibitor, partial curve, poor fit]
CN(C1CCCCC1)S(=O)(=O)c1ccc(F)c(C(=O)Nc2ccc(C(F)(F)F)cc2)c1 31.6 µM [inhibitor, partial curve, poor fit]
COc1cc(OC)cc(C(=O)NCCc2csc(-c3cccc(C)c3)n2)c1 31.6 µM [inhibitor, single point]
Cc1ccccc1Cn1c(=O)n(Cc2ccco2)c(=O)c2oc3ccccc3c21 39.8 µM [inhibitor, partial curve, poor fit]
COc1ccc(Nc2ncc(C(=O)N3CCN(c4ccc(OC)cc4)CC3)c3ccccc23)cc1 28.2 µM [inhibitor, single point]
O=C(c1ccc2c(c1)CCN2S(=O)(=O)c1ccc(Cl)cc1)N1CCN(c2ccccc2F)CC1 25.1 µM [inhibitor, partial curve, poor fit]
CN(C)c1ccc(CN2CCc3nc(N4CCN(c5ccccn5)CC4)ncc3C2)cc1 6.31 µM [inhibitor, partial curve]
Cc1nc2c(c(SCC(=O)Nc3ccccc3C(F)(F)F)n1)CCC2 35.5 µM [inhibitor, partial curve, poor fit]
CC(C)N(Cc1ccccc1)C(=O)c1cc2ccc3cccnc3c2[nH]1 39.8 µM [inhibitor, single point]
Cc1ccccc1Nc1nnc(-c2ccc(C)c(S(=O)(=O)N3CCN(C)CC3)c2)c2ccccc12 31.6 µM [inhibitor, partial curve, poor fit]
COc1cccc(NC(c2nnc(-c3ccccc3)o2)c2ccc(F)cc2Cl)c1 (configuration not stated) 31.6 µM [inhibitor, partial curve, poor fit]
COc1ccc(C(=O)NCC(c2cccnc2)N2CCN(c3ccccc3OC)CC2)cc1 (configuration not stated) 15.8 µM [inhibitor, partial curve, poor fit]
COCCCNC(=O)C1CCCN(c2ncnc3onc(C)c23)C1 (configuration not stated) 17.8 µM [inhibitor, partial curve, poor fit]
COc1ccc(CCNC(=O)c2ccc3c(Cl)c4c(nc3c2)CCCC4)cc1OC 39.8 µM [inhibitor, single point]
Cc1ccccc1OCC(=O)Nc1ccc(C(=O)OCc2cc(=O)n3c(C)csc3n2)cc1 7.94 µM [inhibitor, full curve, poor fit]
COc1ccc(CNC(=O)CSCc2cnn(-c3ccccc3)c2-n2cccc2)cc1OC 17.8 µM [inhibitor, partial curve, poor fit]
Cc1ccc(CNC(=O)c2c(-c3ccc(Br)cc3)noc2C)o1 35.5 µM [inhibitor, partial curve, poor fit]
Cc1c(C(=O)NCc2ccccc2)oc2ccc(S(=O)(=O)N3CCC(C)CC3)cc12 39.8 µM [inhibitor, single point]
COc1ccc(C)cc1NC(=O)c1ccc2nc(Cc3ccccc3)oc2c1 39.8 µM [inhibitor, single point]
COc1ccc(N2CCN(C(=O)CSc3nc4ccccc4nc3Cc3ccc(Cl)cc3)CC2)cc1 39.8 µM [inhibitor, single point]
Cc1c(C(=O)NCCc2ccc(Cl)cc2)cccc1-n1cnc2cccnc21 15.8 µM [inhibitor, partial curve, poor fit]
O=C(Nc1ccc2nc3n(c(=O)c2c1)CCCCC3)c1cccc(C(F)(F)F)c1 17.8 µM [inhibitor, partial curve, poor fit]
Cc1ccc(CNc2ccc3cc(S(=O)(=O)N4CCCCC4)ccc3n2)cc1 28.2 µM [inhibitor, partial curve]
COc1ccccc1Nc1ncnc2scc(-c3ccc(F)cc3)c12 39.8 µM [inhibitor, partial curve, poor fit]
Cc1ccc(CNC(=O)c2ccc(CS(=O)(=O)Cc3ccc(C)cc3)o2)cc1 4.47 µM [inhibitor, partial curve, poor fit]

Potency, inactive:
Cc1cc(C)cc(NC(=O)N2CCC(N3CCCCC3)CC2)c1
CCOc1ccc(C2CC(=O)n3nc(-c4ccc(C)cc4)nc3S2)cc1OC (configuration not stated)
CN(C)C(=O)c1ccc(S(=O)(=O)c2ccc(NC(=O)[C@@](C)(O)C(F)(F)F)c(Cl)c2)cc1
C#C[C@]1(O)CC[C@H]2[C@@H]3CCc4cc(OC)ccc4[C@H]3CC[C@@]21C
Cc1ccc(NC(=O)NCc2cccn2Cc2ccccc2)cc1F
CCOC(=O)C1CCN(C(=O)c2nn(-c3ccc(C)cc3)c(=O)c3c2c2ccccc2n3C)CC1
CCCN(CCC)C(=O)c1c[nH]c2ccc(S(=O)(=O)N(C)c3ccc(OCC)cc3)cc2c1=O
CCCn1c(/C=C/c2ccccc2)nc2ccccc21
